Assay results reported in the supplement of paper PMC9174493.
Some of the results follow. Single values of this set are uncertain. Values with irradiation are relative to irradiated vehicle.

Experiments:
[1] = tested on: A549-Dual; assay: NF-kB reporter (SEAP) activity, viability-corrected, relative to vehicle (fold change vs vehicle); higher = more activation of STING-IRF / NF-kB immune response reporter; details: 10 µM
[2] = tested on: A549-Dual; assay: ISRE reporter (Lucia luciferase) activity, viability-corrected, relative to vehicle (fold change vs vehicle); higher = more activation of STING-IRF / NF-kB immune response reporter; details: 10 µM
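For NF-kB reporter (SEAP) activity, viability-corrected, relative to vehicle in this document: viability correction based on the alamar blue assay, with concentrations leaving 10% survival or less dropped.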

Row | Compound | NF-kB reporter ([1]; irradiation: 8 Gy/4 fr) | NF-kB reporter ([1]; irradiation: none) | ISRE reporter ([2]; irradiation: 8 Gy/4 fr) | ISRE reporter ([2]; irradiation: none)
1 | Cc1nnc(NS(=O)(=O)c2ccc(N)cc2)s1 [Sulfamethizole] | 0.698 | 0.914 | 0.684 | 0.679
2 | C1COC(NC(C2CC2)C2CC2)=N1.O=P(O)(O)O [Rilmenidine Phosphate] | 1.21 | 0.729 | 0.964 | 0.581
3 | Nc1nc2ccc(OC(F)(F)F)cc2s1 [Riluzole] | 0.916 | 0.892 | 0.761 | 0.729
4 | Cc1cc([N]([Na])S(=O)(=O)c2ccc(N)cc2)no1 [Sulfamethoxazole sodium] | 0.964 | 0.893 | 0.883 | 0.727
5 | COc1cc(C(=O)NC2CCCNC2)cc(OC)c1OC (centres undefined) [Troxipide] | 0.697 | 1.58 | 0.652 | 1.13
6 | CC(=O)O.N=C(N)NCCCC(N)C(=O)NC(CCCNC(=N)N)C(=O)N1CCCC1C(=O)N1CC(O)CC1C(=O)NCC(=O)NC(Cc1cccs1)C(=O)NC(CO)C(=O)N1Cc2ccccc2CC1C(=O)N1C(C(=O)NC(CCCNC(=N)N)C(=O)O)CC2CCCCC21 (centres undefined) [Icatibant Acetate] | 1.47 | 0.854 | 1.64 | 1.05
